# Some of the results follow. Binding of human transcription factors and regulators to the viral nucleoprotein by AlphaScreen, crude cell-free proteins, amounts not normalised, one pass. Fold of the Venus control; higher = more signal. No active / inactive call. Single-pass screen; sequences are the whole Swiss-Prot entries looked up by name.
# B1: LMO4, P61968 (protein)
# chain: MVNPGSSSQPPPVTAGSLSWKRCAGCGGKIADRFLLYAMDSYWHSRCLKCSCCQAQLGDIGTSCYTKSGMILCRNDYIRLFGNSGACSACGQSIPASELVMRAQGNVYHLKCFTCSTCRNRLVPGDRFHYINGSLFCEHDRPTALINGHLNSLQSNPLLPDQKVC
# B2: PTCH1, Q13635 (protein)
# chain: MASAGNAAEPQDRGGGGSGCIGAPGRPAGGGRRRRTGGLRRAAAPDRDYLHRPSYCDAAFALEQISKGKATGRKAPLWLRAKFQRLLFKLGCYIQKNCGKFLVVGLLIFGAFAVGLKAANLETNVEELWVEVGGRVSRELNYTRQKIGEEAMFNPQLMIQTPKEEGANVLTTEALLQHLDSALQASRVHVYMYNRQWKLEHLCYKSGELITETGYMDQIIEYLYPCLIITPLDCFWEGAKLQSGTAYLLGKPPLRWTNFDPLEFLEELKKINYQVDSWEEMLNKAEVGHGYMDRPCLNPADPDCPATAPNKNSTKPLDMALVLNGGCHGLSRKYMHWQEELIVGGTVKNSTGKLVSAHALQTMFQLMTPKQMYEHFKGYEYVSHINWNEDKAAAILEAWQRTYVEVVHQSVAQNSTQKVLSFTTTTLDDILKSFSDVSVIRVASGYLLMLAYACLTMLRWDCSKSQGAVGLAGVLLVALSVAAGLGLCSLIGISFNAATTQVLPFLALGVGVDDVFLLAHAFSETGQNKRIPFEDRTGECLKRTGASVALTSISNVTAFFMAALIPIPALRAFSLQAAVVVVFNFAMVLLIFPAILSMDLYRREDRRLDIFCCFTSPCVSRVIQVEPQAYTDTHDNTRYSPPPPYSSHSFAHETQITMQSTVQLRTEYDPHTHVYYTTAEPRSEISVQPVTVTQDTLSCQSPESTSSTRDLLSQFSDSSLHCLEPPCTKWTLSSFAEKHYAPFLLKPKAKVVVIFLFLGLLGVSLYGTTRVRDGLDLTDIVPRETREYDFIAAQFKYFSFYNMYIVTQKADYPNIQHLLYDLHRSFSNVKYVMLEENKQLPKMWLHYFRDWLQGLQDAFDSDWETGKIMPNNYKNGSDDGVLAYKLLVQTGSRDKPIDISQLTKQRLVDADGIINPSAFYIYLTAWVSNDPVAYAASQANIRPHRPEWVHDKADYMPETRLRIPAAEPIEYAQFPFYLNGLRDTSDFVEAIEKVRTICSNYTSLGLSSYPNGYPFLFWEQYIGLRHWLLLFISVVLACTFLVCAVFLLNPWTAGIIVMVLALMTVELFGMMGLIGIKLSAVPVVILIASVGIGVEFTVHVALAFLTAIGDKNRRAVLALEHMFAPVLDGAVSTLLGVLMLAGSEFDFIVRYFFAVLAILTILGVLNGLVLLPVLLSFFGPYPEVSPANGLNRLPTPSPEPPPSVVRFAMPPGHTHSGSDSSDSEYSSQTTVSGLSEELRHYEAQQGAGGPAHQVIVEATENPVFAHSTVVHPESRHHPPSNPRQQPHLDSGSLPPGRQGQQPRRDPPREGLWPPPYRPRRDAFEISTEGHSGPSNRARWGPRGARSHNPRNPASTAMGSSVPGYCQPITTVTASASVTVAVHPPPVPGPGRNPRGGLCPGYPETDHGLFEDPHVPFHVRCERRDSKVEVIELQDVECEERPRGSSSN
# B3: MYPOP, Q86VE0 (protein)
# chain: MASAAAGEAEETTRLRKPRFSFEENQILIREVRAHYPQLYGAQSRRVSVAERRRVWDGIAAKINGITSWKRTGQEVQKRWNDFKRRTKEKLARVPHSTQGAGPAAEDAFSAEEETIFAILGPGVAAPGAGAGAEEPPAAPSSQPPPPSACPQRYVLSEDRREDRRADTSAHSKAGSSSPEPWARPSCTPQEGGCPRPKERESPPPSALQPVQLPRLALSPPPPAPPLPPPPPLAQVAPSPPSPPPPPRPPPTLSASDPSLDFLRAQQETANAIRELAGTLRQGLAKLSEALSALLPLLPGTPVDSLPPPLPPPPPPPPPPRPVLPPPAPKVEITPEPVSVVAAVVDGAVVAARGVIIAPRSEEGAPRPPPAPLPPHDSPPHKRRKGFPTRKRRGRWKSP
# B4: TRERF1, Q96PN7 (protein)
# chain: MGDQQLYKTNHVAHGSENLFYQQPPLGVHSGLNHNYGNAVTGGGMDAPQASPISPHFPQDTRDGLGLPVGSKNLGQMDTSRQGGWGSHAGPGNHVQLRGNLANSNMMWGAPAQAEPTDGYQYTYSQASEIRTQKLTSGVLHKLDSFTQVFANQNLRIQVNNMAQVLHTQSAVMDGAPDSALRQLLSQKPMEPPAPAIPSRYQQVPQQPHPGFTGGLSKPALQVGQHPTQGHLYYDYQQPLAQVPVQGGQPLQAPQMLSQHMQQMQQHQYYPPQQQQQAGQQRISMQEIQTQPQQIRPSQPQPPPQQQQPQQLQLQQRQGSMQIPQYYQPQPMMQHLQEQQQQQMHLQPPSYHRDPHQYTPEQAHTVQLIPLGSMSQYYYQEPQQPYSHPLYQQSHLSQHQQREDSQLKTYSSDRQAQAMLSSHGDLGPPDTGMGDPASSDLTRVSSTLPHRPLLSPSGIHLNNMGPQHQQLSPSAMWPQMHLPDGRAQPGSPESSGQPKGAFGEQFDAKNKLTCSICLKEFKNLPALNGHMRSHGGMRASPNLKQEEGEKVLPPQPQPPLPPPPPPPPPPQLPPEAESLTPMVMPVSVPVKLLPPKPSSQGFTNSTVAAPSARDKPASSMSDDEMPVLEIPRKHQPSVPKAEEPLKTVQEKKKFRHRPEPLFIPPPPSYNPNPAASYSGATLYQSQLRSPRVLGDHLLLDPTHELPPYTPPPMLSPVRQGSGLFSNVLISGHGPGAHPQLPLTPLTPTPRVLLCRSNSIDGSNVTVTPGPGEQTVDVEPRINIGLRFQAEIPELQDISALAQDTHKATLVWKPWPELENHDLQQRVENLLNLCCSSALPGGGTNSEFALHSLFEAKGDVMVALEMLLLRKPVRLKCHPLANYHYAGSDKWTSLERKLFNKALATYSKDFIFVQKMVKSKTVAQCVEYYYTWKKIMRLGRKHRTRLAEIIDDCVTSEEEEELEEEEEEDPEEDRKSTKEEESEVPKSPEPPPVPVLAPTEGPPLQALGQPSGSFICEMPNCGAVFSSRQALNGHARIHGGTNQVTKARGAIPSGKQKPGGTQSGYCSVKSSPSHSTTSGETDPTTIFPCKECGKVFFKIKSRNAHMKTHRQQEEQQRQKAQKAAFAAEMAATIERTTGPVGAPGLLPLDQLSLIKPIKDVDILDDDVVQQLGGVMEEAEVVDTDLLLDDQDSVLLQGDAEL
# B5: PYDC1, Q8WXC3 (protein)
# chain: MGTKREAILKVLENLTPEELKKFKMKLGTVPLREGFERIPRGALGQLDIVDLTDKLVASYYEDYAAELVVAVLRDMRMLEEAARLQRAA
# B6: TCF7, P36402 (protein)
# chain: MPQLDSGGGGAGGGDDLGAPDELLAFQDEGEEQDDKSRDSAAGPERDLAELKSSLVNESEGAAGGAGIPGVPGAGAGARGEAEALGREHAAQRLFPDKLPEPLEDGLKAPECTSGMYKETVYSAFNLLMHYPPPSGAGQHPQPQPPLHKANQPPHGVPQLSLYEHFNSPHPTPAPADISQKQVHRPLQTPDLSGFYSLTSGSMGQLPHTVSWFTHPSLMLGSGVPGHPAAIPHPAIVPPSGKQELQPFDRNLKTQAESKAEKEAKKPTIKKPLNAFMLYMKEMRAKVIAECTLKESAAINQILGRRWHALSREEQAKYYELARKERQLHMQLYPGWSARDNYGKKKRRSREKHQESTTGGKRNAFGTYPEKAAAPAPFLPMTVL
# B7: SPOP, O43791 (protein)
# chain: MSRVPSPPPPAEMSSGPVAESWCYTQIKVVKFSYMWTINNFSFCREEMGEVIKSSTFSSGANDKLKWCLRVNPKGLDEESKDYLSLYLLLVSCPKSEVRAKFKFSILNAKGEETKAMESQRAYRFVQGKDWGFKKFIRRDFLLDEANGLLPDDKLTLFCEVSVVQDSVNISGQNTMNMVKVPECRLADELGGLWENSRFTDCCLCVAGQEFQAHKAILAARSPVFSAMFEHEMEESKKNRVEINDVEPEVFKEMMCFIYTGKAPNLDKMADDLLAAADKYALERLKVMCEDALCSNLSVENAAEILILADLHSADQLKTQAVDFINYHASDVLETSGWKSMVVSHPHLVAEAYRSLASAQCPFLGPPRKRLKQS
# B8: ZBTB7B, O15156 (protein)
# chain: MGSPEDDLIGIPFPDHSSELLSCLNEQRQLGHLCDLTIRTQGLEYRTHRAVLAACSHYFKKLFTEGGGGAVMGAGGSGTATGGAGAGVCELDFVGPEALGALLEFAYTATLTTSSANMPAVLQAARLLEIPCVIAACMEILQGSGLEAPSPDEDDCERARQYLEAFATATASGVPNGEDSPPQVPLPPPPPPPPRPVARRSRKPRKAFLQTKGARANHLVPEVPTVPAHPLTYEEEEVAGRVGSSGGSGPGDSYSPPTGTASPPEGPQSYEPYEGEEEEEELVYPPAYGLAQGGGPPLSPEELGSDEDAIDPDLMAYLSSLHQDNLAPGLDSQDKLVRKRRSQMPQECPVCHKIIHGAGKLPRHMRTHTGEKPFACEVCGVRFTRNDKLKIHMRKHTGERPYSCPHCPARFLHSYDLKNHMHLHTGDRPYECHLCHKAFAKEDHLQRHLKGQNCLEVRTRRRRKDDAPPHYPPPSTAAASPAGLDLSNGHLDTFRLSLARFWEQSAPTGPPVSTPGPPDDDEEEGAPTTPQAEGAMESS
# B9: PTGER3, P43115 (protein)
# chain: MKETRGYGGDAPFCTRLNHSYTGMWAPERSAEARGNLTRPPGSGEDCGSVSVAFPITMLLTGFVGNALAMLLVSRSYRRRESKRKKSFLLCIGWLALTDLVGQLLTTPVVIVVYLSKQRWEHIDPSGRLCTFFGLTMTVFGLSSLFIASAMAVERALAIRAPHWYASHMKTRATRAVLLGVWLAVLAFALLPVLGVGQYTVQWPGTWCFISTGRGGNGTSSSHNWGNLFFASAFAFLGLLALTVTFSCNLATIKALVSRCRAKATASQSSAQWGRITTETAIQLMGIMCVLSVCWSPLLIMMLKMIFNQTSVEHCKTHTEKQKECNFFLIAVRLASLNQILDPWVYLLLRKILLRKFCQIRYHTNNYASSSTSLPCQCSSTLMWSDHLER
# Biological target: nucleoprotein N of Crimean-Congo hemorrhagic fever virus
# Assay: AlphaScreen luminescence signal relative to Venus negative control (fold); higher = stronger binding to CCHFV N
# Experimental: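 AlphaScreen binding of cell-free made, FLAG-GST-tagged human transcription factors and regulators (crude translation products) to biotinylated N protein; signal as fold of the FLAG-GST-Venus control. One pass.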
row,Binder,AlphaScreen luminescence signal
1,B1,2
2,B2,3.77
3,B3,3.4
4,B4,3.58
5,B5,1.35
6,B6,1.67
7,B7,2
8,B8,18.5
9,B9,9.58

# From the supplement of paper PMC12423691
